Measurements taken from patent publication US20230024528A1, “METHODS OF USE OF ANTI-TREM2 ANTIBODIES” (Alector LLC, priority 2019, published 2023).

Columns and labels:
[1] = tested on: human macrophages; assay: Human macrophage cell viability following CSF1 (M-CSF) withdrawal, CellTiter-Glo; type: cell-based; conditions: 10 μg/mL antibody, serum-free RPMI; compared to M-CSF alone (50 ng/mL), IgG1 (10 μg/mL) or antibody at 1 μg/mL; N=3 donors
From the text: To evaluate the ability of an anti-TREM2 agonistic antibody to sustain survival of human macrophages after CSF1 withdrawal, human monocytes were isolated from whole blood using RosetteSep Human Monocyte Enrichment Protocol (Stem Cell Technologies). To prepare human monocyte derived macrophages, monocytes were counted and plated in complete RPMI media (RPMI supplemented with Glutamax, penicillin/streptomycin, non-essential amino acids, sodium-pyruvate, and 10% heat inactivated fetal bovine serum) and 50 ng/ml M-CSF (Peprotech). After 6 days, differentiated monocytes (macrophages) were harvested and plated onto 96-well plates at a density of 1.0×10^3 cells/well in complete RPMI media with M-CSF. Cells were allowed to recover overnight. On Day 7, cell media was replaced with serum-free RPMI media and cells were treated with M-CSF only (50 ng/mL), IgG1 (10 μg/mL), AL2p-58 huIgG1 PSEG (1 μg/mL), or AL2p-58 huIgG1 PSEG (10 μg/mL). Cell viability was quantified using the CellTiter-Glo luminescent viability assay (Promega) on each subsequent day post M-CSF withdrawal.

[2] = tested on: human macrophages; assay: Human macrophage cell viability and survival following CSF1R inhibition with PLX3397, CellTiter-Glo; type: cell-based
Description: To evaluate the ability of an anti-TREM2 antibody to sustain survival of human macrophages after CSF1R inhibition, the ability of AL2p-58 huIgG1 PSEG to enhance cell-viability and survival in the presence of CSF1R inhibitor PLX3397 was tested (DeNardo et al., Cancer Discov (2011) 1(1):54-67. 22039576t; Peng, et al., J. of Exp Canc Res (2019) 38(1):372. PMID: 31438996). Similar to CSF1 withdrawal experiments, human derived macrophages were plated onto 96-well plates on Day 6 and treated with IgG1, PLX3397 (30 nM), AL2p-58 huIgG1 PSEG (10 μg/mL) or a combination of PLX3397 and AL2p-58 huIgG1 PSEG on Day 7, all in complete RPMI media. Cell viability was quantified using the CellTiter-Glo luminescent viability assay (Promega) on each subsequent day.

[3] = tested on: CSF1R protein; assay: CSF1R protein expression in brain of non-human primates treated with antibody (Example 3); type: in vivo
Description: Non-human primates were treated with a control IgG or with increasing concentrations of AL2p-58 huIgG1 PSEG antibody. The level of CSF1R protein in samples from the frontal cortex was measured.

[4] = tested on: CSF1R protein; assay: CSF1R protein levels in frontal cortex and hippocampus after five weekly intravenous doses (Example 4); type: in vivo, cynomolgus monkeys; conditions: 48 hours after 5th weekly intravenous dose, versus control-treated animals, N=5 per group
Description: Cynomolgus monkeys were administered weekly doses of control or anti-TREM2 antibody AL2p-58 huIgG1 by intravenous injection for a total of five doses (N=5 per dose group). Forty-eight hours after the 5th dose, brain tissue was harvested and corresponding lysates were analyzed for CSF1R protein expression.

Molecule | cell viability (fold change) following withdrawal of M-CSF [1] | cell viability of PLX3397-treated cells also treated with antibody ([2]; PLX3397 30 nM + antibody 10 μg/mL, versus PLX3397 alone) | survival of human macrophages in the presence of CSF1R inhibition ([2]; antibody 10 μg/mL with PLX3397 30 nM, complete RPMI media) | CSF1R levels in the frontal cortex at the highest antibody concentration ([3]; highest concentration, 12.5× higher than the lowest, versus control, student's t-test) | CSF1R in the hippocampus ([3]; hippocampus, in a comparable study) | CSF1R protein expression in the frontal cortex ([3]; increasing concentrations of antibody, compared to control IgG) | CSF1R protein levels in the frontal cortex [4] | CSF1R protein levels in the hippocampus [4]
AL2p-58 huIgG1 PSEG: agonist anti-TREM2 antibody, human IgG1 Fc with P331S and E430G; heavy chain SEQ ID NO: 43 or 44, light chain SEQ ID NO: 47 (antibody) heavy: QVQLVQSGAEVKKPGASVKVSCKASGYAFSSQWMNWVRQAPGQRLEWIGRIYPGGGDTNYAGKFQGRVTITADTSASTAYMELSSLRSEDTAVYYCARLLRNQPGESYAMDYWGQGTLVTVSS[gap - human IgG1 constant region with P331S E430G (EU numbers)] light: DVVMTQSPDSLAVSLGERATINCRSSQSLVHSNRYTYLHWYQQKPGQSPKLLIYKVSNRFSGVPDRFSGSGSGTDFTLKISRVEAEDVGVYYCSQSTRVPYTFGQGTKLEIKRTVAAPSVFIFPPSDEQLKSGTASVVCLLNNFYPREAKVQWKVDNALQSGNSQESVTEQDSKDSTYSLSSTLTLSKADYEKHKVYACEVTHQGLSSPVTKSFNRGEC | significantly increased cell viability | significant improvement in cell viability | sustained survival of human macrophages | an increase in CSFR1 levels that was statistically significant compared to control | increased CSFR1 in the hippocampus was observed but not consistently | increased CSF1R protein expression |  | 
AL2p-58 huIgG1: variant of anti-TREM2 antibody AL2p-58 huIgG1 PSEG having an Fc comprising wild-type IgG1 (antibody) heavy: QVQLVQSGAEVKKPGASVKVSCKASGYAFSSQWMNWVRQAPGQRLEWIGRIYPGGGDTNYAGKFQGRVTITADTSASTAYMELSSLRSEDTAVYYCARLLRNQPGESYAMDYWGQGTLVTVSS[gap - human IgG1 constant region] light: DVVMTQSPDSLAVSLGERATINCRSSQSLVHSNRYTYLHWYQQKPGQSPKLLIYKVSNRFSGVPDRFSGSGSGTDFTLKISRVEAEDVGVYYCSQSTRVPYTFGQGTKLEIKRTVAAPSVFIFPPSDEQLKSGTASVVCLLNNFYPREAKVQWKVDNALQSGNSQESVTEQDSKDSTYSLSSTLTLSKADYEKHKVYACEVTHQGLSSPVTKSFNRGEC |  |  |  |  |  |  | significantly increased | significantly increased
